Source: article PMC10562560, “Molecular basis for cellular retinoic acid-binding protein 1 in modulating CaMKII activation” (Frontiers in Molecular Biosciences, 2023)

Target: T1, His-tagged wild-type (WT) CRABP1 (Mus musculus, UniProt P62965)
T1 construct: Expected MW about 17 kDa; also called His-CRABP1; source: E. coli, purified (HisTrap nickel column, SEC)
Assay: pull-down; purified His-CRABP1 (WT or mutant, 5 uM) held on Ni-NTA resin as bait; 250 ug pre-cleared lysate of HEK293T cells expressing GFP-CaMKII (DMSO or ionomycin 10 uM, 10 min) as prey; 50 mM Tris pH 8.0, 150 mM NaCl, 0.2% NP-40, 20% glycerol, 200 mM imidazole, overnight at 4°C; Western blot with anti-GFP and anti-His; densitometry gives the CCI (n = 5)
Details: one partner purified

T1 sequence (P62965 2-137): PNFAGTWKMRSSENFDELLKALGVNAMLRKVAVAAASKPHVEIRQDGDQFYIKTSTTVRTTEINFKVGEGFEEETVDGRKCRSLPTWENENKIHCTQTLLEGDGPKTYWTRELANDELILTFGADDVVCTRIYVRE

B1: GFP-CaMKII beta, inactive (from vehicle-treated HEK293T cells) (enzyme, Rattus norvegicus)
chain: MATTVTCTRFTDEYQLYEDIGKGAFSVVRRCVKLCTGHEYAAKIINTKKLSARDHQKLEREARICRLLKHSNIVRLHDSISEEGFHYLVFDLVTGGELFEDIVAREYYSEADASHCIQQILEAVLHCHQMGVVHRDLKPENLLLASKCKGAAVKLADFGLAIEVQGDQQAWFGFAGTPGYLSPEVLRKEAYGKPVDIWACGVILYILLVGYPPFWDEDQHKLYQQIKAGAYDFPSPEWDTVTPEAKNLINQMLTINPAKRITAHEALKHPWVCQRSTVASMMHRQETVECLKK[skipping about 20 residues]VGRQTTAPATMSTAASGTTMGLVEQAKSLLNKKADGVKPQTNSTKNSSAITSPKGSLPPAALEPQTTVIHNPVDGIKESSDSTNTTIEDEDAKARKQEIIKTTEQLIEAVNNGDFEAYAKICDPGLTSFEPEALGNLVEGMDFHRFYFENLLAKNSKPIHTTILNPHVHVIGEDAACIAYIRLTQYIDGQGRPRTSQSEETRVWHRPDGKWQNVHFHCSGAPVAPLQ
notes: Calcium/calmodulin-dependent protein kinase II beta isoform (CaMKII beta), Rattus norvegicus, expression construct Addgene #21227; the state in the lysate was not measured; also called CaMKII (– ionomycin); source: HEK293T, transfected, DMSO (vehicle) treated, in lysate
CRABP1–CaMKII Complex Index (CCI; ratio of inactive to active CaMKII pulled down): ~2
